Assay results reported in PubChem BioAssay AID504333 (National Center for Advancing Translational Sciences (NCATS), 2011).
Screen size: about 360,000 compounds; about 16,000 (4.4%) were called active. Inconclusive means that the source gave no clear call. Such entries were picked first, then a sample of the others. Calls come from the whole dose curve; as a rule, active = well fitted inhibition curve with a large enough effect; inconclusive = small, poorly fitted or top-dose-only effect; inactive = no such curve, though single readings can be large or run the other way. Potencies beside an inconclusive call are fits to weak or partial responses and may not hold up.

Each compound was assayed against Bromodomain adjacent to zinc finger domain protein 2B (Homo sapiens) (UniProt Q9UIF8) (assay: qHTS Assay for Inhibitors of BAZ2B). Details: AlphaScreen BAZ2B-H3K14Ac peptide displacement; activity change, negative = inhibition: at 114 µM (top of the series) unless noted.
UniProt Q9UIF8, sequence (Q9UIF8 whole entry, looked up, the tested form may be a part): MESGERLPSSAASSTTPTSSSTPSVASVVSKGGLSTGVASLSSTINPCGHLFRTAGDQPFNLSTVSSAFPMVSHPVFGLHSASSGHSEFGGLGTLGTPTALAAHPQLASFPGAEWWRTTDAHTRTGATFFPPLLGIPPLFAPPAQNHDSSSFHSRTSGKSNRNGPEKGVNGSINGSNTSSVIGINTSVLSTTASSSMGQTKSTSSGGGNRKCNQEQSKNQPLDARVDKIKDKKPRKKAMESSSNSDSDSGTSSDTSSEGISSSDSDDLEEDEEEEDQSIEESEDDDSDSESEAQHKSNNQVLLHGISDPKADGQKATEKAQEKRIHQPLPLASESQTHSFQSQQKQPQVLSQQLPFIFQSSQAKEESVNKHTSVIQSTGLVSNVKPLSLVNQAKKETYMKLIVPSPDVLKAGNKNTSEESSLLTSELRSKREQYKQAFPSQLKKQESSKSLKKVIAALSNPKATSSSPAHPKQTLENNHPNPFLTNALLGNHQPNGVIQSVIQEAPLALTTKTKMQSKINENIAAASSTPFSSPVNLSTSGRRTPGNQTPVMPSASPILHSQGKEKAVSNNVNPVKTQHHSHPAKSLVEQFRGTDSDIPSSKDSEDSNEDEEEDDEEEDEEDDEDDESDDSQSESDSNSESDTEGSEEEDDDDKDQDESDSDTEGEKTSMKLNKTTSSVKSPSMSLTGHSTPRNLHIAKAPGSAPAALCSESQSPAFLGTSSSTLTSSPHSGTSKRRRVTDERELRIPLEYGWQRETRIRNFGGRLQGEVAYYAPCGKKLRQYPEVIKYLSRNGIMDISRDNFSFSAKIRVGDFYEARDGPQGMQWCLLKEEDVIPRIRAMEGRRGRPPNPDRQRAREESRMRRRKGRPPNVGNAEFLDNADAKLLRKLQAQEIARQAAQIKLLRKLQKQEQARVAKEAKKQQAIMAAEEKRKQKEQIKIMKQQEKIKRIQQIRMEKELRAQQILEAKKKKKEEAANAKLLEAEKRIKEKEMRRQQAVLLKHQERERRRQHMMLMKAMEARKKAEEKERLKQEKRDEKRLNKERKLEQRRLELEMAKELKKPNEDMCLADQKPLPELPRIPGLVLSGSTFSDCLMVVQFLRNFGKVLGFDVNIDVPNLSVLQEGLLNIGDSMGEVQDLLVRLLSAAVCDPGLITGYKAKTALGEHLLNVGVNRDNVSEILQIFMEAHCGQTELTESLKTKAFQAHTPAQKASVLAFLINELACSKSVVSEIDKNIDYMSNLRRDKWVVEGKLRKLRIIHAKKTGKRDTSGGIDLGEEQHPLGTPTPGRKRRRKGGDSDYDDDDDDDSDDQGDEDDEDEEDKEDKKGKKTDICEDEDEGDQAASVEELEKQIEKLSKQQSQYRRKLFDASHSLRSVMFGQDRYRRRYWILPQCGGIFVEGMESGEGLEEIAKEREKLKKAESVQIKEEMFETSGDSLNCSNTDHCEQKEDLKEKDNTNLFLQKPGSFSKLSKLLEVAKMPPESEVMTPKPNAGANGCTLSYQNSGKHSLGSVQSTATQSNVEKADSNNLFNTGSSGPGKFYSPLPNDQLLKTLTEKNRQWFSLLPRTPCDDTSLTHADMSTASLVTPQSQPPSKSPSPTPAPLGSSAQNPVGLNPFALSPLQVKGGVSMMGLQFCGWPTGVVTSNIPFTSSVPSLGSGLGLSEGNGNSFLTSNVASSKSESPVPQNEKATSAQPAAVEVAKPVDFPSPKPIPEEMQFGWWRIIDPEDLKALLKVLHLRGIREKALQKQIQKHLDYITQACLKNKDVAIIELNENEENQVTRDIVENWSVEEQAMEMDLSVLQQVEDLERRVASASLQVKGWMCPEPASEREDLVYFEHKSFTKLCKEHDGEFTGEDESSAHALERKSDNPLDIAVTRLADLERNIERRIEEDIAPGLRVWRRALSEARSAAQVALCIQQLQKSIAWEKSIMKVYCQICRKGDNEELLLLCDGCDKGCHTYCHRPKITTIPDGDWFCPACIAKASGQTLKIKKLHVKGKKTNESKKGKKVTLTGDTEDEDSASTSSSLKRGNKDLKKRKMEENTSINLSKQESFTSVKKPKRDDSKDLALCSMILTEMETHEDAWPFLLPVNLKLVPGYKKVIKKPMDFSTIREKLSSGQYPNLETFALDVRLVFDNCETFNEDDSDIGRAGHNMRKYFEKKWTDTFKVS
Procedure, shortened: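 Multi-concentration screen (max 110 uM) measuring displacement of acetylated histone H3 peptide from BAZ2B by AlphaScreen, using 50 nM protein, 50 nM peptide and 10 ug/mL streptavidin donor plus Ni-chelate acceptor beads.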
% is set by controls: 0 for no effect and ±100 for the full control effect; potency is the fitted concentration of half-maximal effect; tags give direction and shape of the fitted curve.
Note: nearly all actives have a fitted effect of over 60% in size.

SMILES | Potency | activity change, negative = inhibition
Cc1cccc(N2CCN(C(=O)/C=C/c3ccco3)CC2)c1C | active: 50.1 µM | –
Cc1ccc(CN=c2c([N+](=O)[O-])nn(-c3ccc(Cl)cc3)n2O)cc1 | inconclusive: 50.1 µM [inhibitor, partial curve] | –
CCC(OCC(O)CN1CCCCC1)c1ccccc1 (centres undefined) | – | inactive: -22.3%
Fc1ccccc1/C=C1\CCCC2=C1Nc1ncnn1C2c1ccccc1F (centres undefined) | inconclusive: 12.6 µM [inhibitor, full curve, poor fit] | –
OC(CN1CCOCC1)c1ccc(F)cc1 (centres undefined) | active: 50.1 µM | –
COc1cccc(CN2CCNC(=O)C2CC(=O)NCCn2ccc3ccccc32)c1OC (centres undefined) | inconclusive: 50.1 µM [inhibitor, partial curve] | –
CC(=O)N(Cc1cc(=O)[nH]c2ccccc12)c1ccccc1 | inconclusive: 3.98 µM [inhibitor, single point] | –
COc1ccc(O)c(-c2c(-c3ccc(Cl)cc3)n[nH]c2C)c1 | inconclusive: 39.8 µM [inhibitor, partial curve] | –
COc1cc(C(=O)NCc2cc3ccccc3n2C)cc(OC)c1OC | inconclusive: 89.1 µM [inhibitor, single point] | –
COc1ccccc1NC(=O)CSC1=Nc2ccccc2N=C(c2ccc(F)cc2)C1 | inconclusive: 56.2 µM [inhibitor, partial curve, poor fit] | –
CCOC(=O)C(=NC1CCCCC1)NNc1cccc(C(F)(F)F)c1 | – | inactive: -27%
Cc1cccc(C)c1NC(=O)CN(C)C(=O)C1=COCCO1 | – | inactive: 0.119%
CC(/C=C/c1ccc(N(C)C)cc1)=N\N=C(/N)SC1CC(=O)N(c2ccc(C(=O)O)cc2)C1=O (centres undefined) | active: 50.1 µM | –
CCC(Sc1nnnn1C)C(=O)Nc1ccc(C(C)=O)cc1 (centres undefined) | inconclusive: 89.1 µM [inhibitor, single point] | –
O=C(CSC1=N/C(=C/c2ccco2)C(=O)N1c1ccc(OC(F)F)cc1)NC1CCS(=O)(=O)C1 (centres undefined) | active: 50.1 µM | –
CC[n+]1ccccc1/C=C1\Sc2ccc(C)cc2N1C | inconclusive: 79.4 µM [inhibitor, single point] | –
C=CCNC(=O)c1ccc(C2SCC(=O)N2Cc2ccco2)cc1 (centres undefined) | inconclusive: 56.2 µM [inhibitor, partial curve] | –
O=C(/C=C\Nc1ccc(Cl)cn1)c1ccc(Br)cc1 | – | inactive: -23.4%
CC(=O)NC(c1ccco1)c1cc(Cl)c2ccc(N3CCCCC3)nc2c1O (centres undefined) | inconclusive: 89.1 µM [inhibitor, single point] | –
CCN(C(=O)Cn1c(=O)n(CC2CCC(C(=O)NC)CC2)c(=O)c2sccc21)c1ccccc1 (centres undefined) | – | inactive: -2.25%
COc1ccccc1N1CCN(CCCCOc2cccc3ccccc23)CC1 | active: 35.5 µM | –
O=C(/C=C/c1ccccc1)N1CCN(Cc2nc3ccccc3c(=O)[nH]2)CC1 | inconclusive: 100 µM [inhibitor, single point] | –
COc1cccc2cc(C(N)=O)/c(=N\NC(=O)c3ccccc3)oc12 | inconclusive: 89.1 µM [inhibitor, single point] | –
O=C1c2cccnc2C(=O)N1Cc1cccs1 | inconclusive: 70.8 µM [inhibitor, single point] | –
NC(=O)[C@@H]1CCOc2c(I)cc([N+](=O)[O-])cc2C(=O)N[C@@H](CO)C(=O)NCC(=O)N1 | – | inactive: -7.61%

SMILES | Potency | activity change, negative = inhibition
CC(C)C(c1nnnn1C(C)(C)C)N1CCN(Cc2cccnc2)CC1 (centres undefined) | active: 56.2 µM | –
Cn1cnnc1Sc1ccc(/C=C(\CC(=O)O)c2nc3ccccc3s2)cc1[N+](=O)[O-] | inconclusive: 56.2 µM [inhibitor, partial curve] | –
Nc1ccc(Cc2nc3cc4ccccc4cc3[nH]2)cc1 | – | inactive: -35.5%
Cc1ccc(NC(=O)COc2ccccc2C(=O)NCCc2ccccc2)cc1 | inconclusive: 89.1 µM [inhibitor, single point] | –
COc1ccc(CNCC(=O)Nc2cccc(S(N)(=O)=O)c2)cc1 | active: 56.2 µM | –
Cn1cc(C(=O)c2ccc(F)cc2)cc1-c1nc2ccccc2n1C | inconclusive: 39.8 µM [inhibitor, partial curve] | –
CC(C)(C)c1ccc(-c2csc(NNC3=NCCCCC3)n2)cc1 | inconclusive: 50.1 µM [inhibitor, partial curve] | –
O=C(NCC(c1cccnc1)N1CCc2ccccc2C1)C(=O)Nc1ccccc1 (centres undefined) | inconclusive: 1.41 µM [inhibitor, full curve] | –
COc1ccccc1CNS(=O)(=O)c1ccc(F)c(C(=O)Nc2cc(Cl)ccc2OC)c1 | – | inactive: 2.12%
O=C(CNC(=O)c1cccnc1)N/N=C/c1ccc(O)cc1O | inconclusive: 89.1 µM [inhibitor, single point] | –
FC(F)(F)c1cccc(CNC2CCN(Cc3ccccc3)CC2)c1 | inconclusive: 89.1 µM [inhibitor, single point] | –
CCc1ccc(NC2=NCC(=O)N2Cc2ccc3c(c2)OCO3)cc1 | inconclusive: 89.1 µM [inhibitor, single point] | –
O=C(Oc1oc(-c2ccco2)nc1C=Nc1ccccc1)c1ccoc1 | – | inactive: -18.5%
C=CCn1c(/N=C/c2ccc(N(C)C)cc2)nc2ccccc21 | inconclusive: 44.7 µM [inhibitor, partial curve] | –
Nc1ccnn1Cc1cccnc1 | inconclusive: 100 µM [inhibitor, single point] | –
COC(=O)CN1C(=S)N(c2ccc(OC)cc2)C(=O)/C1=C/c1ccc(N2CCOCC2)cc1 | active: 28.2 µM | –
Cc1ncc(CO)c(/C=N/NC(=S)Nc2cccc(Cl)c2)c1O | active: 12.6 µM | –
CCCCC(=O)OC1=C(C(=O)c2ccccc2)N(CC)S(=O)(=O)c2ccccc21 | inconclusive: 44.7 µM [inhibitor, partial curve] | –
N#Cc1cccc(NC(=O)C2SC(=Nc3ccccc3)C(C(=O)N3CCOCC3)=C2N)c1 (centres undefined) | inconclusive: 44.7 µM [inhibitor, partial curve] | –
CCn1c(SCC(=O)O)nnc1-c1cccnc1 | – | inactive: 1.66%
C=CCN1C(c2ccc(OCC)cc2)=CS/C1=C(\C#N)c1nnc2n1CCCCC2 | inconclusive: 89.1 µM [inhibitor, single point] | –
Cc1cc(NC(=O)Cn2nnc3sc4c(c3c2=O)CCC(C(C)(C)C)C4)no1 (centres undefined) | – | inactive: -21%
Cc1ccn2c(c1)nc(=S)n2C(=O)c1ccccc1 | – | inactive: 8.66%
CC(C)n1c(C(=O)OCC(=O)NCc2ccc3c(c2)OCO3)cc2occc21 | inconclusive: 39.8 µM [inhibitor, full curve] | –
N#C/C(=C\c1cccs1)C(=O)NCc1cccnc1 | – | inactive: -3.29%

SMILES | Potency | activity change, negative = inhibition
CCOc1ccc(Nc2nc(N)nc(CN3CCN(c4ccccc4F)CC3)n2)cc1 | active: 56.2 µM | –
CC(CC(=O)O)Nc1ccccc1O (centres undefined) | active: 44.7 µM | –
CCN(CC)C(=O)c1sc2c(c1C)c(=O)n(-c1ccc(Cl)c(Cl)c1)c(=O)n2CC(=O)Nc1cccc(OC)c1 | – | inactive: -2.83%
Cc1ccc(Nc2cc(C)c3ccc(O)cc3n2)cc1C | – | inactive: -29.4%
O=S(=O)(Cc1ccccc1)C1CCCCC1O (centres undefined) | – | inactive: -0.58%
COc1ccc(NC(=O)CSc2nnc(-c3ccoc3C)n2CCc2ccccc2)cc1 | inconclusive: 89.1 µM [inhibitor, single point] | –
COc1ccc(-c2nnc3c4ccccc4c(-c4ccccc4)nn23)cc1 | – | inactive: -4.31%
Cc1ccc(-c2nn(-c3ccccc3)cc2C2CC(c3cccs3)=NN2C(=O)CCCC(=O)O)cc1 (centres undefined) | active: 79.4 µM | –
FC(F)(F)c1nc(-c2ccncc2)ncc1-c1nnnn1-c1ccccc1 | inconclusive: 100 µM [inhibitor, single point] | –
COc1ccc(C(=O)NCC(c2ccc3c(c2)OCO3)N2CCN(c3ccc(OC)cc3)CC2)cc1 (centres undefined) | inconclusive: 31.6 µM [inhibitor, full curve] | –
OC1(c2ccc(F)cc2)CSC(=Nc2cccnc2)N1Cc1ccco1 (centres undefined) | inconclusive: 79.4 µM [inhibitor, single point] | –
CCN1CCN(C(c2ccccc2)c2c(O)cc(C)n(Cc3ccco3)c2=O)CC1 (centres undefined) | – | inactive: -18.7%
COc1cccc(N2CCN(c3nc(-c4ccccc4C)cc(=O)[nH]3)CC2)c1 | inconclusive: 22.4 µM [inhibitor, partial curve] | –
Cc1nnsc1C(=O)Nc1ccc(S(=O)(=O)N2CCCCC2)cc1 | – | inactive: -7.14% [at 57.1 µM]
N#C/C(=C/c1ccc(Cl)cc1Cl)c1nc2ccccc2c(=O)[nH]1 | – | inactive: 1.66%
COc1ccc(S(=O)(=O)NCC(c2ccco2)N2CCc3ccccc32)cc1 (centres undefined) | inconclusive: 44.7 µM [inhibitor, partial curve] | –
Cc1cc(C)cc(-n2c(C)cc(C(=O)CSc3nnnn3C)c2C)c1 | inconclusive: 50.1 µM [inhibitor, partial curve] | –
NC(=O)c1ccc(NC(=O)COc2coc(CN3CCc4ccccc4C3)cc2=O)cc1 | inconclusive: 89.1 µM [inhibitor, single point] | –
O=C1C2=C(Nc3ccccc3SC2c2ccccc2C(F)(F)F)c2ccccc21 (centres undefined) | inconclusive: 10 µM [inhibitor, full curve] | –
Cc1ccc(C)c(NC(=O)Cn2c(=O)ccc3cc(S(=O)(=O)N4CCCC4)ccc32)c1 | – | inactive: 2.22%
Clc1ccccc1CN1CCN(/N=C/C=C\c2ccco2)CC1 | active: 39.8 µM | –
COc1cc2c(cc1OC)C(c1cc(Br)c(OC)c(OC)c1)CC(=O)N2 (centres undefined) | inconclusive: 89.1 µM [inhibitor, single point] | –
CN(CC(=O)Nc1ccccc1Cl)C(=O)COC(=O)c1ccc(Cl)cc1[N+](=O)[O-] | inconclusive: 70.8 µM [inhibitor, single point] | –
Cc1c(/C=N/NC(=O)CNc2ccccc2)c2ccccn2c1C(=O)c1ccccc1 | – | inactive: -21.8%
